The chains are these.
B1: GBRAP_80_6861 (protein)
chain: AEAALAAARAALKALLPEQAALVDEVVAIAQQLGVPLADIADLLEALVELAKVDKELAAELLEELLEDLKEELEEGDSANALATVRGYAGEALMEAEELE
B2: GBRAP_80_6848 (protein)
chain: AEERLAAALAALEALLPEVAEEARELVALARELGVPDEEIAAFLEALNELAKLDPELAAELIREALEDMKELKEEGDSENALAVVRGYTGDALMAAEELE
B3: GBRAP_160_4241 (protein)
chain: SMRIEELEKEIREEGRLLVEALLEVPPSQWRAIARAFAGDIVQLVIEDENASDEMEDAVDEKAEAMVERLVAAKDASPEEIKALVDEGVDEIIETVKELS
B4: GBRAP_11_2667 (protein)
chain: KKEVYKKAAELAKELAKTVKKLIEEGIDNEELIKKAEELLKELKELAKKELDKASQKEVEVLEEIWKEAKEDKENSLKYWELLLAGARVLEGNFLLEYDE
B5: GBRAP_78_6643 (protein)
chain: EVEELVDEAVEELDEAAKLALKLPEEERNELLDELVEALSYIDESEENGFDLEELEKALEEVEKALELVKKIDHPEAPKIKEELERAKKLLEEAIKLLKE
B6: GBRAP_52_6226 (protein)
chain: MEEEMRALVEEGVALVKAGRLEEAAALAREIVETMNDEELRIFIDEFARAVREAPLEDLPHYERLRELVAAAMEEAGKDEVLIDYLEARFAAAAYERLQR
B7: GBRAP_52_5967 (protein)
chain: MRERARELVERAAELARAGDEEGLEALLREIARTWDDEELRLLAEALAERAREGDPEEAEIALEIAIRLADVLEEEGRDPRLAADLLGLVARAAYEKELA
B8: GBRAP_160_4835 (protein)
chain: SEKVEEAKEFIDEEFEEMIEMMKGETPENRAAIVAVGMGEIIMELEEMGVATDELEDFIVEIEDELVETILENPDLTDEELEELLEEAREKIKEKLEEEA

Whole data set: some 4,500 sequences, median “median log2 fold change of GCK-ALFA target abundance (FLAG IP / Myc IP barcode read proportion)” near 0.078, cut for the lowest 2% near -0.6. Some of the results follow.

The target in this assay is GABARAP, O95166. Put plainly: median log2 fold change of GCK-ALFA target abundance (FLAG IP / Myc IP barcode read proportion) (log2 ratio); each designed protein is fused to an ALFA-tag nanobody in HEK293 cells to bring the named protein to FLAG-tagged glucokinase (GCK); Myc marks an untargeted standard; higher = target protein stabilised (more abundant). Particulars: target protein: 3xFLAG-MCP-GCK-ALFA reporter; HEK293 landing pad (RPLP). The method, boiled down: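 Binders fused to an ALFA nanobody were recombined as a library into HEK293 landing-pad cells, which were induced with 2 μg mL^−1 doxycycline and then transfected to express a FLAG-tagged target and a Myc-tagged standard. After 48 h, circular RNA barcodes recovered by anti-FLAG and anti-Myc immunoprecipitation of lysates were reverse transcribed, amplified and sequenced. Each binder's target abundance is the median log2 ratio of FLAG to Myc barcode read proportions, from barcodes present at ≥10^−7 in both replicates, binders carrying ≥3 barcodes per replicate, a 10^−6 pseudocount and pooled replicates.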
Chain of GABARAP, O95166 (O95166 whole entry, the tested form may be a part): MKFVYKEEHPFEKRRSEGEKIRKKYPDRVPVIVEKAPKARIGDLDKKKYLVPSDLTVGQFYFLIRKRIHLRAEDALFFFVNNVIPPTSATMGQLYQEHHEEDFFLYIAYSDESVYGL
Regarding B1, the “median log2 fold change” value is -0.579. Take B2: the “median log2 fold change” value is -0.203.

In the case of B3, the “median log2 fold change” value is -0.0817. As for B4, the figure is -0.102; as for B5, -0.174. As for B6, the figure is 0.00404; as for B7, -0.344.

As to B8, the “median log2 fold change” value is -0.539.

The values are drawn from the supplement of paper PMC12632987.
